Molecules are shown by their SMILES. Screen size: about 310,000 compounds; about 14,000 (4.5%) showed an effect of 50% or more. The effect is printed as a negative number. The list shows a part of the results.
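Further: peak tail current of the secondary pulse compared with the same well before compound.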

Chain of human ether-à-go-go-related gene (hERG) potassium channel (Q12809 whole entry, looked up): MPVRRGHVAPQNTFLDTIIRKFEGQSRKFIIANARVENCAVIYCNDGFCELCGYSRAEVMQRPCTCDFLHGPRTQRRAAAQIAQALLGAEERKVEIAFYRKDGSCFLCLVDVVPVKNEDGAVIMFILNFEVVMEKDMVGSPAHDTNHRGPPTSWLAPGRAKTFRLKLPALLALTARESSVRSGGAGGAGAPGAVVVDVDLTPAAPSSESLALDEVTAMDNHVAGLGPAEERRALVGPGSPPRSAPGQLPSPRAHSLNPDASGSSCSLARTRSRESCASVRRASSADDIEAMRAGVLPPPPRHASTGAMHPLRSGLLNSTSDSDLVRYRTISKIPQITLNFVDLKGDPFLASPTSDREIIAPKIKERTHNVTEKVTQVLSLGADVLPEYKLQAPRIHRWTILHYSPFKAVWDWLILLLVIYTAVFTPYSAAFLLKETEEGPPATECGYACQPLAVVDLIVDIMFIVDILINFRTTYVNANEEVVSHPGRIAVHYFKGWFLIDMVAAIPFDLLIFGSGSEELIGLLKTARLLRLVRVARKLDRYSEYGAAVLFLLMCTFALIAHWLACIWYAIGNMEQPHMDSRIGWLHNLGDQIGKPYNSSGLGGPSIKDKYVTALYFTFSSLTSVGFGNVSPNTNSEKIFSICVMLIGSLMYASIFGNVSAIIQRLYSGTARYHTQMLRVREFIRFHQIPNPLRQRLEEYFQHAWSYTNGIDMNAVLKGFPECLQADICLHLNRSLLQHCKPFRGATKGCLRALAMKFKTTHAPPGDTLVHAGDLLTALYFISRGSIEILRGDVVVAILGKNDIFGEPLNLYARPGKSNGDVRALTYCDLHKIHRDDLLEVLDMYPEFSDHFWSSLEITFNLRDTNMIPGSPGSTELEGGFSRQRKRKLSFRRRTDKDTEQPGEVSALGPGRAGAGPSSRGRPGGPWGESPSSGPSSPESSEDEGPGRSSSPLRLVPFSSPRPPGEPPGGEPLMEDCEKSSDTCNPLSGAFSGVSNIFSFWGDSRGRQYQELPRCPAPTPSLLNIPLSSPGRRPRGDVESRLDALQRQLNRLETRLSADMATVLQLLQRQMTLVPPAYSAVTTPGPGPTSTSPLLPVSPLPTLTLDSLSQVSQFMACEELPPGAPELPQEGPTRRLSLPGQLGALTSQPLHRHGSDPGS

The assay concerns the target human ether-à-go-go-related gene (hERG) potassium channel (human, UniProt Q12809). The experiment in a line: primary screen, population patch clamp on CHO cells stably expressing hERG.
Take `Cc1ncc2c(c1OC(=O)c1ccc([N+](=O)[O-])cc1)COC(C)(C)OC2`: the “hERG current change (%, negative = inhibition) at 10uM” value is -65.8%.
For the molecule `CCc1ccccc1NC(=O)C1CCN(C(=O)N2CCOc3ccccc32)CC1`, the “hERG current change (%, negative = inhibition) at 10uM” value is given as 1.77%.
As to `CCCCN(CC)CCCNC(=O)c1cc2c(=O)n(CC)c3ccccc3c2s1`, the “hERG current change (%, negative = inhibition) at 10uM” value is reported as -28.6%.
`CC(CCN1CCN(CCO)CC1)c1ccccc1` (centres unmarked): the “hERG current change (%, negative = inhibition) at 10uM” value is reported as 9.32%.
For `CSc1nsc(SC)c1C(=O)NCCNS(=O)(=O)c1ccc(C)cc1`, the “hERG current change (%, negative = inhibition) at 10uM” value turned out to be 2.51%.
To `COc1cc(CNCCO)cc(Cl)c1OCc1ccccc1Cl.Cl` belongs -2.88%.
Turning to `CCC(C)(C(=O)NC1CCCC1)N(C(=O)c1ccccn1)c1ccccc1` (centres unmarked), the “hERG current change (%, negative = inhibition) at 10uM” value was -5.75%.
Turning to `COc1ccc(-c2noc(-c3ccc(C)cc3)n2)cc1`, the “hERG current change (%, negative = inhibition) at 10uM” value is 31.4%.
As to `COc1ccccc1NC(=O)c1sc2ncn(Cc3cccc(C)c3)c(=O)c2c1C`, the “hERG current change (%, negative = inhibition) at 10uM” value was -7.24%.
Take `CCCC(CCC(=O)Nc1cc([N+](=O)[O-])ccc1O)C(=O)O` (centres unmarked): the “hERG current change (%, negative = inhibition) at 10uM” value is reported as 19.2%.
Regarding `O=C(CN(Cc1ccccc1)S(=O)(=O)c1ccc(Br)cc1)N/N=C/c1ccccc1C(=O)O`, the “hERG current change (%, negative = inhibition) at 10uM” value is listed as 8.75%.
As for `Cc1nc(C(=O)Nc2ccccc2Cl)cc2c1[nH]c1ccccc12`, the “hERG current change (%, negative = inhibition) at 10uM” value came out at 0.837%.
To `COCCCNC(=S)NCCNc1nc2cc(C)cc(C)c2cc1C#N` belongs -31.2%.
Consider `O=C(/C=C/c1c(Cl)nc2ccccn12)N1CCN(c2ccc(F)cc2)CC1`, for which the “hERG current change (%, negative = inhibition) at 10uM” value was -40.5%.
Regarding `O=C(Nc1ccccc1)C1CC(O)CN1S(=O)(=O)c1ccc([N+](=O)[O-])cc1` (centres unmarked), the “hERG current change (%, negative = inhibition) at 10uM” value is listed as 2.02%.
As for `Cc1cc(C)cc(NC(=O)CSc2nnc(C3CC3)n2CC2CCCO2)c1` (centres unmarked), the “hERG current change (%, negative = inhibition) at 10uM” value is on record as -47.1%.
On to `O=C(Nc1cc2c(oc1=O)CCCC2=O)c1ccccc1`, for which the “hERG current change (%, negative = inhibition) at 10uM” value is on record as -6.91%.
Take `COc1ccccc1NC(=O)N(Cc1ccc2c(c1)OCO2)Cc1nc2ccccc2c(=O)[nH]1`: the “hERG current change (%, negative = inhibition) at 10uM” value is given as -7.38%.
For the molecule `COc1ccc(C(=O)Nc2ccc(S(=O)(=O)N3CCCC3)cc2)c(OC)c1`, the “hERG current change (%, negative = inhibition) at 10uM” value was -1.22%.
As to `COC(=O)CSC1=C(C#N)C(c2ccccc2F)CC(=O)N1` (centres unmarked), the “hERG current change (%, negative = inhibition) at 10uM” value amounted to 7.73%.
Consider `CCOC(=O)c1c(NC(=O)Cc2cccs2)sc(C)c1C`, for which the “hERG current change (%, negative = inhibition) at 10uM” value was 0.899%.
The result for `CCc1nnc(NC(=O)CSc2nnc(C3CCCCC3)n2-c2cccc(Cl)c2)s1` reads -1.12%; that for `Cc1ccc2oc(=O)n(Cc3ccccc3)c2c1`, 15.7%.
In the case of `COC(=O)c1ccccc1NC(=O)C1CCN(C(=O)c2cc(OC)c(OC)c(OC)c2)CC1`, the “hERG current change (%, negative = inhibition) at 10uM” value is listed as -18.5%.
With `O=C(c1nc2ccccn2c1CNCCCn1cccn1)N1CCCC1`, the “hERG current change (%, negative = inhibition) at 10uM” value is -12.1%.
`CC(=O)Nc1ccc(NC(=O)C2CCN(S(=O)(=O)c3cccc4nonc34)CC2)cc1`: the “hERG current change (%, negative = inhibition) at 10uM” value was -8%.
Regarding `CCc1ccc(-c2nn[nH]n2)cc1`, the “hERG current change (%, negative = inhibition) at 10uM” value came to 4.61%.
The result for `O=C(NNC(=O)c1ccccc1OCc1ccccc1Cl)c1csc(N2CCOCC2)n1` reads 31%; that for `O=C(Cc1cccs1)Nc1ccc(NC(=O)c2ccco2)cc1`, 5.99%; that for `CCc1ccc(NC(=O)c2ccc(C3SCC(=O)N3CCc3ccccc3)cc2)cc1` (centres unmarked), 6.22%.
Consider `C=CCn1c[n+](CC(=O)c2ccc(Br)s2)c2ccccc21.[Br-]`, for which the “hERG current change (%, negative = inhibition) at 10uM” value is recorded as -6.97%.
To `CC(=O)c1c(C)[nH]c(C(=O)COC(=O)CCOc2ccc(C)cc2)c1C` belongs -8.71%.
To `CS(=O)(=O)c1ccc(Cl)c(NC(=O)C2CCCCN2S(=O)(=O)c2ccccc2)c1` (centres unmarked) belongs -49.3%; to `C/C=C/Cn1c(SCCCc2ccccc2)nc2c1c(=O)[nH]c(=O)n2C`, -35.7%; to `Cc1c(CNCC(C)c2ccccc2)c(C(=O)O)c(C)n1Cc1ccccc1` (centres unmarked), -10%.
For the molecule `Cc1ccc(NC(=O)CSc2nc3c(c(=O)[nH]2)CN(Cc2ccc(F)cc2)CC3)cc1C`, the “hERG current change (%, negative = inhibition) at 10uM” value is -8.41%.
Consider `Cc1nc2c(ccc3nc(NC(=O)C(c4ccccc4)c4ccccc4)sc32)s1`, for which the “hERG current change (%, negative = inhibition) at 10uM” value turned out to be 20.6%.
The result for `O=C(CNS(=O)(=O)c1ccc2ccccc2c1)OCc1csc(-c2ccccc2)n1` reads 0.647%; that for `O=C(Nc1cccc2cccnc12)c1cc(F)c(F)cc1Cl`, 17.6%; that for `CCN(CC)CCn1c(NCc2ccco2)nc2ccccc21.Cl`, -73%.
`Cc1cc2cccc(C)c2nc1SCC(=O)N(C)c1nc(-c2ccccc2)cs1`: the “hERG current change (%, negative = inhibition) at 10uM” value came out at 7.45%.
Consider `CCN(CC)S(=O)(=O)c1ccc(S(=O)(=O)N(CC(=O)Nc2ccccc2)CC2CCCO2)cc1` (centres unmarked), for which the “hERG current change (%, negative = inhibition) at 10uM” value was -18.6%.
Regarding `COC(=O)C1=C(C)N(CC2CC2)C(=NCCN2CCOCC2)N[C@H]1c1ccccc1`, the “hERG current change (%, negative = inhibition) at 10uM” value is on record as -19.3%.
To `Cc1cccc(Nc2nc(-c3c(C)nc4ccccn34)cs2)c1` belongs 0.479%; to `Nc1n[nH]c(N)c1N=Nc1ccc(Cl)cc1`, 1.38%.
Consider `CC(CS(=O)(=O)c1ccc2c(c1)NC(=O)CS2)C(=O)NCc1ccccc1Cl` (centres unmarked), for which the “hERG current change (%, negative = inhibition) at 10uM” value is on record as -0.823%.
In the case of `OCC[C@@H]1C[C@H](O)[C@@H](O)[C@]2(Cc3ccccc3CCO2)O1`, the “hERG current change (%, negative = inhibition) at 10uM” value is 8.2%.
Turning to `CCc1cc(=O)oc2c(C)c(OCC(=O)NCCCn3ccnc3)ccc12`, the “hERG current change (%, negative = inhibition) at 10uM” value is -45.9%.
For `CC(C)(C)C(=O)Nc1cc(NC(=O)C(C)(C)C)cc(C(=O)NNC(=O)c2ccncc2)c1`, the “hERG current change (%, negative = inhibition) at 10uM” value is recorded as 16.5%.
As for `CN(C)S(=O)(=O)c1ccc(Cl)c(C(=O)Nc2ccccc2[N+](=O)[O-])c1`, the “hERG current change (%, negative = inhibition) at 10uM” value was -21.9%.
Regarding `CCCn1c(SCC(=O)/C(C#N)=C(\C)N)n[nH]c1=O`, the “hERG current change (%, negative = inhibition) at 10uM” value turned out to be 7.25%.
In the case of `CC1CCCC(C)N1/N=C/c1ccc(C(=O)O)cc1` (centres unmarked), the “hERG current change (%, negative = inhibition) at 10uM” value stood at 5.77%.
For `Clc1nc(Cl)nc(NCCC2=CCCCC2)n1`, the “hERG current change (%, negative = inhibition) at 10uM” value is given as 0.247%.
On to `Cc1ccccc1C(=O)Nc1scc(-c2ccc(Br)cc2)c1C(=O)O`, for which the “hERG current change (%, negative = inhibition) at 10uM” value was 8.3%.
As to `COc1cccc(Oc2ccc(C(F)(F)F)cc2NC(=O)CCc2nc3ccccc3c(=O)[nH]2)c1`, the “hERG current change (%, negative = inhibition) at 10uM” value is -16.4%.
As for `CC(/C=N/NC(=O)c1cccs1)=C\c1ccco1`, the “hERG current change (%, negative = inhibition) at 10uM” value is on record as -1.92%.
To `CC(C)OP(=O)(c1ccc(N(C)C)cc1)C(O)c1ccc(C(C)C)cc1` (centres unmarked) belongs 7.66%.
As to `CCOC(=O)c1ccc(Nc2nc(=O)c3cccnc3s2)cc1`, the “hERG current change (%, negative = inhibition) at 10uM” value is listed as -7.17%.
To `CCN(CC1CCCO1)C(=O)CCc1nnc(Cc2ccc3c(c2)OCO3)o1` (centres unmarked) belongs 34.4%; to `C=CCn1cccc(C(=O)Nc2ccc(OC)cc2)c1=O`, -2.33%; to `COc1ccc(NC(=S)Nc2ccc3snnc3c2)cc1`, 41%.
To `CCOC(=O)c1ccccc1NC(=O)CSc1cccc[n+]1[O-]` belongs 1.48%; to `NC(=O)C1CCN(Cc2nc(-c3ccccc3)no2)CC1`, -14.1%.
As for `COCCn1c(=O)[nH]c(=O)c2c1nc(-c1ccc(-c3ccc(Cl)cc3[N+](=O)[O-])o1)n2Cc1ccccc1`, the “hERG current change (%, negative = inhibition) at 10uM” value is -10.3%.
The result for `COc1ccc(C(=O)/C=C/Nc2c(C)n(C)n(-c3ccccc3)c2=O)c(OC)c1` reads 0.857%; that for `CCOC(=O)c1sc2nc(C)nc(SC(C)C(=O)N(C)c3ccccc3)c2c1C` (centres unmarked), -15%.
For the molecule `COc1ccc(NC(=O)Cc2c(F)cccc2Cl)c(OC)c1`, the “hERG current change (%, negative = inhibition) at 10uM” value worked out at 2.66%.
`CCCN(CC(=O)Nc1cccc(S(N)(=O)=O)c1)CC(=O)Nc1ccc(F)c(F)c1F`: the “hERG current change (%, negative = inhibition) at 10uM” value was -3.56%.
For `O=C(c1ccccc1)c1cccn1CC(=O)N1CCN(c2ccc(F)cc2)CC1`, the “hERG current change (%, negative = inhibition) at 10uM” value is listed as -30.1%.
On to `CN(C)CCN(C(=O)c1ccc2ccccc2c1)c1nc2ccc(Br)cc2s1.Cl`, for which the “hERG current change (%, negative = inhibition) at 10uM” value is reported as 13.2%.
Turning to `COCCNC(=O)c1cccc2c1-c1ccccc1C2=O`, the “hERG current change (%, negative = inhibition) at 10uM” value was -3.85%.
As to `O=C(Nc1ccc2c(c1)OCO2)c1ccc2c(c1)OCO2`, the “hERG current change (%, negative = inhibition) at 10uM” value was found to be 22.2%.
`Cn1c(SCC(=O)Nc2nccs2)nnc1C12CC3CC(CC(C3)C1)C2`: the “hERG current change (%, negative = inhibition) at 10uM” value was -6.22%.
As to `COC(=O)[C@@]1(C)CC[C@]2(C)CC[C@@]3(C)C(=CC(=O)C4[C@@]5(C)CC[C@H](O)C(C)(C)[C@@H]5CC[C@]43C)[C@H]2C1` (some centres unmarked), the “hERG current change (%, negative = inhibition) at 10uM” value came out at 16.7%.
With `COC(=O)[C@@H](Cc1c[nH]c2ccccc12)NC(=O)CCC(=O)c1ccc(Br)cc1`, the “hERG current change (%, negative = inhibition) at 10uM” value is -6%.
For `CCCc1c(C)[nH]c2ccccc2c1=O`, the “hERG current change (%, negative = inhibition) at 10uM” value came to 2.07%.
With `Cc1cc(C)cc(NC(=O)CSc2nnnn2-c2cccnc2)c1`, the “hERG current change (%, negative = inhibition) at 10uM” value was 6.91%.
Turning to `COc1cccc2c(=O)c(C(=O)O)c[nH]c12`, the “hERG current change (%, negative = inhibition) at 10uM” value is on record as -0.514%.
For the molecule `CC(NS(=O)(=O)c1ccc2c(c1)CC(=O)N2C)c1ccccc1` (centres unmarked), the “hERG current change (%, negative = inhibition) at 10uM” value worked out at 9.13%.
To `COc1cc(C2CC(c3cccs3)=NN2C(=O)CCl)ccc1OC(F)F` (centres unmarked) belongs 17%.
For the molecule `O=c1[nH]c(Nc2ccccc2)cc2ccccc12`, the “hERG current change (%, negative = inhibition) at 10uM” value is reported as 1.33%.
For the molecule `COc1ccc(NC(=O)CSc2nnc3c4c(nc(-c5ccccc5)n23)CC(C)(C)OC4)cc1`, the “hERG current change (%, negative = inhibition) at 10uM” value is given as -6.16%.
In the case of `CCn1cc(C(=O)NCCCN2CCCC2)c(=O)c2cc(S(=O)(=O)N3CCc4ccccc4C3)ccc21`, the “hERG current change (%, negative = inhibition) at 10uM” value was -8.75%.
For `Cc1ccc(C(=O)OCC(=O)NCc2cccs2)c(C)c1`, the “hERG current change (%, negative = inhibition) at 10uM” value turned out to be 22.5%.
For `CCC(=O)Nc1nc(CC(=O)Nc2ccccc2)cs1`, the “hERG current change (%, negative = inhibition) at 10uM” value is listed as 18.2%.
Take `CC1(C)Cc2cccc(OCC(=O)N3CCN(c4ccc([N+](=O)[O-])cc4)CC3)c2O1`: the “hERG current change (%, negative = inhibition) at 10uM” value is recorded as -70.3%.
